Measured values from paper PMC9911399, “Two distinct binding modes provide the RNA-binding protein RbFox with extraordinary sequence specificity”.
Where a chain is given by its changes, count along the chain named. The list shows a part of the results.

B1: UCGCUAG (DNA:RNA)
RNA: GGGAGACCGGAAUUCAGAUUGUCCUCGCUAGUUAAAUCCCGUCGUAGCCACCA
DNA 1: CAATCTGAATTCCGGTCTCCC
DNA 2: TGGTGGCTACGACGGGATT
B2: GACUAUG (DNA:RNA)
RNA: B1 RNA with U25G, C26A, G27C, C28U, U29A, A30U
DNA 1: CAATCTGAATTCCGGTCTCCC
DNA 2: TGGTGGCTACGACGGGATT
B3: UGCCAAA (DNA:RNA)
RNA: B1 RNA with C26G, G27C, U29A, G31A
DNA 1: CAATCTGAATTCCGGTCTCCC
DNA 2: TGGTGGCTACGACGGGATT
B4: AUAACUA (DNA:RNA)
RNA: GGGAGACCGGAAUUCAGAUUGUCCAUAACUAUUAAAUCCCGUCGUAGCCACCA
DNA 1: CAATCTGAATTCCGGTCTCCC
DNA 2: TGGTGGCTACGACGGGATT
B5: CCAGGUG (DNA:RNA)
RNA: B4 RNA with A25C, U26C, A28G, C29G, A31G
DNA 1: CAATCTGAATTCCGGTCTCCC
DNA 2: TGGTGGCTACGACGGGATT
B6: GAUAAGU (DNA:RNA)
RNA: B4 RNA with A25G, U26A, A27U, C29A, U30G, A31U
DNA 1: CAATCTGAATTCCGGTCTCCC
DNA 2: TGGTGGCTACGACGGGATT
B7: CAUUAUC (DNA:RNA)
RNA: B4 RNA with A25C, U26A, A27U, A28U, C29A, A31C
DNA 1: CAATCTGAATTCCGGTCTCCC
DNA 2: TGGTGGCTACGACGGGATT
B8: CGGCGUG (DNA:RNA)
RNA: B1 RNA with U25C, C26G, U29G, A30U
DNA 1: CAATCTGAATTCCGGTCTCCC
DNA 2: TGGTGGCTACGACGGGATT
B9: GCAUAAG (DNA:RNA)
RNA: B1 RNA with U25G, G27A, C28U, U29A
DNA 1: CAATCTGAATTCCGGTCTCCC
DNA 2: TGGTGGCTACGACGGGATT
B10: GCCGAGU (DNA:RNA)
RNA: B1 RNA with U25G, G27C, C28G, U29A, A30G, G31U
DNA 1: CAATCTGAATTCCGGTCTCCC
DNA 2: TGGTGGCTACGACGGGATT
B11: AAAAUCC (DNA:RNA)
RNA: B4 RNA with U26A, C29U, U30C, A31C
DNA 1: CAATCTGAATTCCGGTCTCCC
DNA 2: TGGTGGCTACGACGGGATT
B12: GCAUUAC (DNA:RNA)
RNA: B1 RNA with U25G, G27A, C28U, G31C
DNA 1: CAATCTGAATTCCGGTCTCCC
DNA 2: TGGTGGCTACGACGGGATT
B13: GUCAGGG (DNA:RNA)
RNA: B4 RNA with A25G, A27C, C29G, U30G, A31G
DNA 1: CAATCTGAATTCCGGTCTCCC
DNA 2: TGGTGGCTACGACGGGATT
B14: UCAAAUU (DNA:RNA)
RNA: B4 RNA with A25U, U26C, C29A, A31U
DNA 1: CAATCTGAATTCCGGTCTCCC
DNA 2: TGGTGGCTACGACGGGATT
B15: UAUAGCA (DNA:RNA)
RNA: B4 RNA with A25U, U26A, A27U, C29G, U30C
DNA 1: CAATCTGAATTCCGGTCTCCC
DNA 2: TGGTGGCTACGACGGGATT
B16: CUACAGA (DNA:RNA)
RNA: B4 RNA with A25C, A28C, C29A, U30G
DNA 1: CAATCTGAATTCCGGTCTCCC
DNA 2: TGGTGGCTACGACGGGATT
B17: AAUGGGG (DNA:RNA)
RNA: B4 RNA with U26A, A27U, A28G, C29G, U30G, A31G
DNA 1: CAATCTGAATTCCGGTCTCCC
DNA 2: TGGTGGCTACGACGGGATT
B18: GGGUCAU (DNA:RNA)
RNA: B1 RNA with U25G, C26G, C28U, U29C, G31U
DNA 1: CAATCTGAATTCCGGTCTCCC
DNA 2: TGGTGGCTACGACGGGATT
B19: UGCUCGU (DNA:RNA)
RNA: B4 RNA with A25U, U26G, A27C, A28U, U30G, A31U
DNA 1: CAATCTGAATTCCGGTCTCCC
DNA 2: TGGTGGCTACGACGGGATT
B20: CCACCGC (DNA:RNA)
RNA: B4 RNA with A25C, U26C, A28C, U30G, A31C
DNA 1: CAATCTGAATTCCGGTCTCCC
DNA 2: TGGTGGCTACGACGGGATT

Target: T1, RBFOX1 RRM (Homo sapiens, UniProt Q9NWB1 109-208)
T1 sequence: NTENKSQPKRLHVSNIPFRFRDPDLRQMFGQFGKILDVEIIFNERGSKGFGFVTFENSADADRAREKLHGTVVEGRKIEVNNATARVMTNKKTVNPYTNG
Test: EMSA; HiTS-Eq, 1 nM pool, 10 min; buffer printed only for the single-RNA assays: 10 mM Tris pH 7.5, 150 mM NaCl, 3.4 mM EDTA, 0.001% NP-40, 30 C
Settings: tags: His6 N-terminal (pET28a); label: 5' 32P
Procedure, shortened: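 Purified wild-type or mutant RbFox RRM at increasing concentrations was equilibrated with 1 nM of 5′-radiolabelled RNA carrying 7 randomized nucleotides for 10 min in 50 µL. Unbound RNA was separated by 8% native PAGE and sequenced. Relative association constants came from read-count changes of each RNA species compared with the control reaction, normalised to the cognate motif.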

| Binder | binding signal |
| --- | --- |
| B1 | 0.0217 KA relative to UGCAUGU |
| B2 | 0.0187 KA relative to UGCAUGU |
| B3 | 0.0103 KA relative to UGCAUGU |
| B4 | 0.00149 KA relative to UGCAUGU |
| B5 | 0.0156 KA relative to UGCAUGU |
| B6 | 0.00944 KA relative to UGCAUGU |
| B7 | 0.000253 KA relative to UGCAUGU |
| B8 | 0.026 KA relative to UGCAUGU |
| B9 | 0.0106 KA relative to UGCAUGU |
| B10 | 0.0185 KA relative to UGCAUGU |
| B11 | 0.000499 KA relative to UGCAUGU |
| B12 | 0.00834 KA relative to UGCAUGU |
| B13 | 0.00793 KA relative to UGCAUGU |
| B14 | 0.000705 KA relative to UGCAUGU |
| B15 | 0.0156 KA relative to UGCAUGU |
| B16 | 0.00632 KA relative to UGCAUGU |
| B17 | 0.00782 KA relative to UGCAUGU |
| B18 | 0.0141 KA relative to UGCAUGU |
| B19 | 0.0359 KA relative to UGCAUGU |
| B20 | 0.00519 KA relative to UGCAUGU |
